{
  "source": "a compilation of properties of binary mixtures (doi:10.1016/j.molliq.2021.116463)",
  "experiment": "xn = mol fraction of the nth substance listed",
  "details": "100 kPa",
  "note": "Some of these densities may be calculated back from excess volumes.",
  "data": [
    {"smiles": "[Cl-].c1c[nH+]c[nH]1", "note": "+ OCC(O)CO", "values": [
      {"measurement": "mass density", "setting": "293.2 K, x1 = 0.1667", "value": 1266.6, "unit": "kg/m3"},
      {"measurement": "mass density", "setting": "293.2 K, x1 = 0.25", "value": 1267.9, "unit": "kg/m3"},
      {"measurement": "mass density", "setting": "293.2 K, x1 = 0.3333", "value": 1270.8, "unit": "kg/m3"},
      {"measurement": "mass density", "setting": "293.2 K, x1 = 0.5", "value": 1277.3, "unit": "kg/m3"},
      {"measurement": "mass density", "setting": "303.2 K, x1 = 0.1667", "value": 1260.7, "unit": "kg/m3"},
      {"measurement": "mass density", "setting": "303.2 K, x1 = 0.25", "value": 1262.1, "unit": "kg/m3"},
      {"measurement": "mass density", "setting": "303.2 K, x1 = 0.3333", "value": 1265.1, "unit": "kg/m3"},
      {"measurement": "mass density", "setting": "303.2 K, x1 = 0.5", "value": 1269.3, "unit": "kg/m3"},
      {"measurement": "mass density", "setting": "313.2 K, x1 = 0.25", "value": 1256.2, "unit": "kg/m3"},
      {"measurement": "mass density", "setting": "313.2 K, x1 = 0.5", "value": 1261.3, "unit": "kg/m3"},
      {"measurement": "mass density", "setting": "323.2 K, x1 = 0.1667", "value": 1248.7, "unit": "kg/m3"},
      {"measurement": "mass density", "setting": "323.2 K, x1 = 0.5", "value": 1255.3, "unit": "kg/m3"},
      {"measurement": "mass density", "setting": "333.2 K, x1 = 0.1667", "value": 1242.6, "unit": "kg/m3"},
      {"measurement": "mass density", "setting": "333.2 K, x1 = 0.25", "value": 1244.3, "unit": "kg/m3"},
      {"measurement": "mass density", "setting": "333.2 K, x1 = 0.3333", "value": 1247.4, "unit": "kg/m3"},
      {"measurement": "mass density", "setting": "343.2 K, x1 = 0.1667", "value": 1236.4, "unit": "kg/m3"},
      {"measurement": "mass density", "setting": "343.2 K, x1 = 0.25", "value": 1238.4, "unit": "kg/m3"},
      {"measurement": "mass density", "setting": "343.2 K, x1 = 0.3333", "value": 1241.5, "unit": "kg/m3"},
      {"measurement": "mass density", "setting": "353.2 K, x1 = 0.1667", "value": 1230.3, "unit": "kg/m3"},
      {"measurement": "mass density", "setting": "353.2 K, x1 = 0.25", "value": 1232.5, "unit": "kg/m3"},
      {"measurement": "mass density", "setting": "353.2 K, x1 = 0.3333", "value": 1235.6, "unit": "kg/m3"},
      {"measurement": "mass density", "setting": "353.2 K, x1 = 0.5", "value": 1237.8, "unit": "kg/m3"}
    ]}
  ]
}
